Laboratory results from paper PMC9911399, “Two distinct binding modes provide the RNA-binding protein RbFox with extraordinary sequence specificity”.
Residue numbers refer to the chain shown, from its start. Some of the results follow.

T1: RBFOX1 RRM RbFoxmut (Fox-RRM*) (Homo sapiens, UniProt Q9NWB1 109-208, R118D;E147R;N151S;E152T)
T1 sequence: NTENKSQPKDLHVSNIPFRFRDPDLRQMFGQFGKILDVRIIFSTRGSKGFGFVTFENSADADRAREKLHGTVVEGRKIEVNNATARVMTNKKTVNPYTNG

B1: CCCUCUA (DNA:RNA)
RNA: GGGAGACCGGAAUUCAGAUUGUCCCCCUCUAUUAAAUCCCGUCGUAGCCACCA
DNA 1: CAATCTGAATTCCGGTCTCCC
DNA 2: TGGTGGCTACGACGGGATT
B2: CUGUGCC (DNA:RNA)
RNA: B1 RNA with C26U, C27G, C29G, U30C, A31C
DNA 1: CAATCTGAATTCCGGTCTCCC
DNA 2: TGGTGGCTACGACGGGATT
B3: AAUGAAG (DNA:RNA)
RNA: GGGAGACCGGAAUUCAGAUUGUCCAAUGAAGUUAAAUCCCGUCGUAGCCACCA
DNA 1: CAATCTGAATTCCGGTCTCCC
DNA 2: TGGTGGCTACGACGGGATT
B4: CCAUAAU (DNA:RNA)
RNA: B1 RNA with C27A, C29A, U30A, A31U
DNA 1: CAATCTGAATTCCGGTCTCCC
DNA 2: TGGTGGCTACGACGGGATT
B5: CCGACAA (DNA:RNA)
RNA: B1 RNA with C27G, U28A, U30A
DNA 1: CAATCTGAATTCCGGTCTCCC
DNA 2: TGGTGGCTACGACGGGATT
B6: CGAUUUC (DNA:RNA)
RNA: B1 RNA with C26G, C27A, C29U, A31C
DNA 1: CAATCTGAATTCCGGTCTCCC
DNA 2: TGGTGGCTACGACGGGATT
B7: CGUGUGG (DNA:RNA)
RNA: B3 RNA with A25C, A26G, A29U, A30G
DNA 1: CAATCTGAATTCCGGTCTCCC
DNA 2: TGGTGGCTACGACGGGATT
B8: UGGGGUC (DNA:RNA)
RNA: B3 RNA with A25U, A26G, U27G, A29G, A30U, G31C
DNA 1: CAATCTGAATTCCGGTCTCCC
DNA 2: TGGTGGCTACGACGGGATT
B9: CAUCAUC (DNA:RNA)
RNA: B3 RNA with A25C, G28C, A30U, G31C
DNA 1: CAATCTGAATTCCGGTCTCCC
DNA 2: TGGTGGCTACGACGGGATT
B10: UAGAACG (DNA:RNA)
RNA: B3 RNA with A25U, U27G, G28A, A30C
DNA 1: CAATCTGAATTCCGGTCTCCC
DNA 2: TGGTGGCTACGACGGGATT
B11: AGCUCCC (DNA:RNA)
RNA: B1 RNA with C25A, C26G, U30C, A31C
DNA 1: CAATCTGAATTCCGGTCTCCC
DNA 2: TGGTGGCTACGACGGGATT
B12: CGGUCGC (DNA:RNA)
RNA: B1 RNA with C26G, C27G, U30G, A31C
DNA 1: CAATCTGAATTCCGGTCTCCC
DNA 2: TGGTGGCTACGACGGGATT
B13: CUUAUCC (DNA:RNA)
RNA: B3 RNA with A25C, A26U, G28A, A29U, A30C, G31C
DNA 1: CAATCTGAATTCCGGTCTCCC
DNA 2: TGGTGGCTACGACGGGATT
B14: AACCACG (DNA:RNA)
RNA: B3 RNA with U27C, G28C, A30C
DNA 1: CAATCTGAATTCCGGTCTCCC
DNA 2: TGGTGGCTACGACGGGATT
B15: CCCCCGG (DNA:RNA)
RNA: B1 RNA with U28C, U30G, A31G
DNA 1: CAATCTGAATTCCGGTCTCCC
DNA 2: TGGTGGCTACGACGGGATT
B16: AGCCCCA (DNA:RNA)
RNA: B1 RNA with C25A, C26G, U28C, U30C
DNA 1: CAATCTGAATTCCGGTCTCCC
DNA 2: TGGTGGCTACGACGGGATT
B17: UUCGCGC (DNA:RNA)
RNA: B1 RNA with C25U, C26U, U28G, U30G, A31C
DNA 1: CAATCTGAATTCCGGTCTCCC
DNA 2: TGGTGGCTACGACGGGATT
B18: AGAUAUU (DNA:RNA)
RNA: B3 RNA with A26G, U27A, G28U, A30U, G31U
DNA 1: CAATCTGAATTCCGGTCTCCC
DNA 2: TGGTGGCTACGACGGGATT
B19: CAUGUCA (DNA:RNA)
RNA: B3 RNA with A25C, A29U, A30C, G31A
DNA 1: CAATCTGAATTCCGGTCTCCC
DNA 2: TGGTGGCTACGACGGGATT
B20: ACAUCUG (DNA:RNA)
RNA: B1 RNA with C25A, C27A, A31G
DNA 1: CAATCTGAATTCCGGTCTCCC
DNA 2: TGGTGGCTACGACGGGATT
B21: CGUGAAG (DNA:RNA)
RNA: B3 RNA with A25C, A26G
DNA 1: CAATCTGAATTCCGGTCTCCC
DNA 2: TGGTGGCTACGACGGGATT
B22: CCGCACG (DNA:RNA)
RNA: B3 RNA with A25C, A26C, U27G, G28C, A30C
DNA 1: CAATCTGAATTCCGGTCTCCC
DNA 2: TGGTGGCTACGACGGGATT
B23: AUCUCAU (DNA:RNA)
RNA: B1 RNA with C25A, C26U, U30A, A31U
DNA 1: CAATCTGAATTCCGGTCTCCC
DNA 2: TGGTGGCTACGACGGGATT
B24: GCAGUAU (DNA:RNA)
RNA: B3 RNA with A25G, A26C, U27A, A29U, G31U
DNA 1: CAATCTGAATTCCGGTCTCCC
DNA 2: TGGTGGCTACGACGGGATT
B25: AUUGGAU (DNA:RNA)
RNA: B3 RNA with A26U, A29G, G31U
DNA 1: CAATCTGAATTCCGGTCTCCC
DNA 2: TGGTGGCTACGACGGGATT
B26: UCUACAG (DNA:RNA)
RNA: B3 RNA with A25U, A26C, G28A, A29C
DNA 1: CAATCTGAATTCCGGTCTCCC
DNA 2: TGGTGGCTACGACGGGATT
B27: GACGGGU (DNA:RNA)
RNA: B3 RNA with A25G, U27C, A29G, A30G, G31U
DNA 1: CAATCTGAATTCCGGTCTCCC
DNA 2: TGGTGGCTACGACGGGATT
B28: GGGAUGU (DNA:RNA)
RNA: GGGAGACCGGAAUUCAGAUUGUCCGGGAUGUUUAAAUCCCGUCGUAGCCACCA
DNA 1: CAATCTGAATTCCGGTCTCCC
DNA 2: TGGTGGCTACGACGGGATT
B29: CGAUCUU (DNA:RNA)
RNA: B1 RNA with C26G, C27A, A31U
DNA 1: CAATCTGAATTCCGGTCTCCC
DNA 2: TGGTGGCTACGACGGGATT
B30: UUAGGCA (DNA:RNA)
RNA: B3 RNA with A25U, A26U, U27A, A29G, A30C, G31A
DNA 1: CAATCTGAATTCCGGTCTCCC
DNA 2: TGGTGGCTACGACGGGATT
B31: CACCGUG (DNA:RNA)
RNA: B1 RNA with C26A, U28C, C29G, A31G
DNA 1: CAATCTGAATTCCGGTCTCCC
DNA 2: TGGTGGCTACGACGGGATT

These binders were tested against T1, RBFOX1 RRM RbFoxmut (Fox-RRM*) (assay: EMSA; HiTS-Eq, 1 nM pool, 10 min; buffer printed only for the single-RNA assays: 10 mM Tris pH 7.5, 150 mM NaCl, 3.4 mM EDTA, 0.001% NP-40, 30 C). Conditions: tags: His6 N-terminal (pET28a); label: 5' 32P.
Procedure, shortened: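 Purified RbFox RRM, wild type or mutant, was incubated for 10 min in 50 µL with 1 nM of a 5′-radiolabelled RNA pool carrying 7 randomized nucleotides, whose flanks were annealed to DNA oligonucleotides, over a series of increasing protein concentrations. Unbound RNA was resolved on 8% native PAGE, cut out, reverse-transcribed, barcoded by PCR and sequenced on an Illumina HiSeq 2500. Relative association constants were derived from changes in read counts for each RNA species versus the control reaction and normalised to the cognate motif.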

With B1 as the binder, how does the binding signal read?
The binding signal was 0.0877 KA relative to UGCAUGU.

B2 was tested. Which binding signal did it give?
Its binding signal is 0.251 KA relative to UGCAUGU.

B3 was tested. Which binding signal did it give?
Its binding signal is 0.116 KA relative to UGCAUGU.

B4 was tested. Which binding signal did it give?
The binding signal was 0.0793 KA relative to UGCAUGU.

B5 was tested. Which binding signal did it give?
The binding signal was 0.058 KA relative to UGCAUGU.

For B6, which binding signal is on record?
The binding signal was 0.0719 KA relative to UGCAUGU.

For B7, which binding signal is on record?
The binding signal was 0.0868 KA relative to UGCAUGU.

For B8, which binding signal is on record?
Its binding signal is 0.209 KA relative to UGCAUGU.

For B9, which binding signal is on record?
The binding signal was 0.0619 KA relative to UGCAUGU.

With B10 as the binder, how does the binding signal read?
Its binding signal is 0.181 KA relative to UGCAUGU.

With B11 as the binder, how does the binding signal read?
The binding signal was 0.0327 KA relative to UGCAUGU.

For B12, which binding signal is on record?
Its binding signal is 0.0578 KA relative to UGCAUGU.

With B13 as the binder, how does the binding signal read?
Its binding signal is 0.0826 KA relative to UGCAUGU.

B14 was tested. Which binding signal did it give?
The binding signal was 0.11 KA relative to UGCAUGU.

With B15 as the binder, how does the binding signal read?
The binding signal was 0.0914 KA relative to UGCAUGU.

Which binding signal does the source give for B16 here?
The binding signal was 0.0512 KA relative to UGCAUGU.

For B17, which binding signal is on record?
The binding signal was 0.0915 KA relative to UGCAUGU.

Which binding signal does the source give for B18 here?
Its binding signal is 0.12 KA relative to UGCAUGU.

B19 was tested. Which binding signal did it give?
Its binding signal is 0.0975 KA relative to UGCAUGU.

Which binding signal does the source give for B20 here?
The binding signal was 0.0535 KA relative to UGCAUGU.

Which binding signal does the source give for B21 here?
Its binding signal is 0.119 KA relative to UGCAUGU.

With B22 as the binder, how does the binding signal read?
The binding signal was 0.236 KA relative to UGCAUGU.

Which binding signal does the source give for B23 here?
Its binding signal is 0.0985 KA relative to UGCAUGU.

For B24, which binding signal is on record?
Its binding signal is 0.0922 KA relative to UGCAUGU.

For B25, which binding signal is on record?
The binding signal was 0.0952 KA relative to UGCAUGU.

Which binding signal does the source give for B26 here?
The binding signal was 0.102 KA relative to UGCAUGU.

With B27 as the binder, how does the binding signal read?
Its binding signal is 0.0571 KA relative to UGCAUGU.

How did the binding signal turn out when B28 was run?
Its binding signal is 0.373 KA relative to UGCAUGU.

Which binding signal does the source give for B29 here?
Its binding signal is 0.0485 KA relative to UGCAUGU.

B30 was tested. Which binding signal did it give?
The binding signal was 0.106 KA relative to UGCAUGU.

For B31, which binding signal is on record?
The binding signal was 0.12 KA relative to UGCAUGU.
